Read counts are not given, so values of variants with three or more changes are uncertain.
B1: LINE1-mini (parent)
chain: GGCAGAGCUCAACACAGCGUGGCAAAGUGGCUGUGGCUAGACUGCC

Variants of: B1
Experiment: self-cleavage, relative activity (ratio to wild type); higher = more cleavage; in vitro, sequencing; the parent is a self-cleaving ribozyme

Variant	self-cleavage
C23A G30A G40U C45A	0.64
C23G G30C G40U C42U	0.02
C23A A26C U28G C45U	1.5
A24U A41G C46A	0.23
C23G G29C A39U	0.02
G22C U28G C37A	0.01
C23G A26G G35U	0.03
C23G C31U U32G	0.02
C23U C42G C45A	0.04
G22U U32G G33C C46G	0.09
C23A U32A U34A C46G	0.02
G21U U38G C42G	0
G22U C37U C46A	0.06
G22U C42G C45A	0.04
C23G G27U C42G	0.05
G22U G29U A41C C45A	0.08
C23G U28A G44A	0.17
A24U G27A G44A	1.16
G22U G33C C46U	0.03
C23A G27C A39C	0.07
A24G G27C U28C G44A	0.51
G21U U32C G33A	0.05
G22C U28G G35C C37U C46G	0.01
C23A G29C G35U	0.04

Variant	self-cleavage
G21U U28A A41G	0.26
G22C G29U G30U	0.22
C23G G33U U34A	0.06
G22U C42A U43C C45A	0.03
G22A U28G G30A C46A	0.25
G22U C31A G33A	0.06
C23A G27U G33A G35C C42A	0.17
A24U G35U C37A A39C C45A	0.03
A24G C31U G36A	0.06
G22C C23U U43A	0.01
C23G A26U G35U	0.23
C23G G27U U43A	0.03
C23A G35A C45U	0.22
G21U U28C G29U C31A C45U	0.07
C23A U28G G36U U43G G44A C46U	0
A24G G27A C31G	0.11
G21U U34G G35U	0.06
G22A G33C A41G	0.03
G22C C23A A41G C42A U43C G44U C45G	0.04
G22C G27U U28A C31G A41G	0.03
G22C U28A C37A	0.03
A24G C42U G44C	0.06
C23U G27A G33U A39G	0.24
C23G A24G A41U G44U C45A	0.06

Variant	self-cleavage
G22A C23U C45U	1.08
G22C G36U C46A	0.05
G22C U38G A41G	0.02
G22C A41C C46U	0.01
C23G A24G C31U	0.03
G22C C31U G35U C37A	0.03
C23A G27A U28C	1.26
A24C A26G G29C G30A C46A	0.09
C23G G27U U32C	0.08
G21U G40A C46U	0
A24C G30A C42A	0.16
G22U A24G U32G G36C C45U	0.06
C23A G29U G33C U34A A39U A41C	0.03
A24G A26U G27A C31G	0.04
G22C A26G C45G	0.12
C23A G27U G44A	0.33
A24C G36C A41U C46G	0.07
A24G G27A A39C G40C	0.02
C23G C42U C45A	1.03
G22U G27U C46A	2.61
A24G C37U U38G G44U	0.05
C23G A39C C42U C46U	0.05
A24U A26G G29U	1.36
G22U G27A G29C C37U	0.02

Variant	self-cleavage
G22A G27C U38G C45G	0.01
G22U A24G C42A	0.02
G21U G40U A41G C45A	0.2
C23A C45U C46A	0.92
C23A A24U G27U U38A U43G C45U C46G	0.02
G22C G29A C37G	0
A24C A39G C42U	0.07
G22U C23A A39G	0.06
G22A A26G A41G	0.28
A24C U28A G35A C42U U43G	0.02
G22C G30U A41G	0.33
A24U G27A G29A U32G C42A	0.01
C23G G27A C42A	0.08
G22U A26G G35C	0.18
C23G U34C G40C	0.02
A24G G30A C46A	1.22
A24G G27A G29A C31U	0.85
A24G A26U G33C C42A	0.03
C23U U38G C42A U43G	0.04
G22U A26C U32A	0.19
G22A C23G G27U C37A G40A	0.21
C23A U28G C37G G44U	0.04
A24U A25U C31G C42G	0.09
G21U U34C C45U	0.07

Variant	self-cleavage
C23U A25U C37G G44U	0.13
G22U U28G A41C	0.05
C23A U28A C31U	0.54
G21U U32G G33A	0.11
A24U U28G G33C U38C C42G	0.01
A24C U38C G44U	0.07
A24U G33A G44C	0.01
A24G C31G G36U U38C C45U	0.02
C23A U38A A39C	0.75
A24U A26U G27C C45G	0.07
G22U A26U G33U G36C	0.02
G22C C23A G30C C45G	1.47
G21U G40C C42A	0.07
G22A C42U U43C G44A	0.09
C23U G35U U43C	1.24
G22C U34G C37U C42U	0.03
G21U G35A G44C	0.08
A24G G33A G44U	0.13
G22C G35A U38A A39C	0.09
C23A G33A G40C C42A C46U	0.03
A24G C37A C45A	0.06
C23A G30C A41G	0.09
G22U G27C G35C A39G G44U	0.13
G22C G29C U38A	0.14

Variant	self-cleavage
A24G U28A U43G	0
G22A A24U A25U	0.45
G22A G30U G33U	0.18
A24U G30U G33U G35U C37A A39G C46A	0.28
C23A G33U A41G C42U	0.14
G22U G27A U28C	0.91
G22U C23A G33U	0.51
C23U A26U G27U A39G	0.05
G22C G27U U32G	0.05
C23A G33U U34G G35A C45G	0.03
C23U G36A C37U A39G G40C	0.04
G22U C37G C45U	0.04
A24U G27A U32G	0.1
A24U G36A A41C	0.09
C23U A26U A39C	0.61
A24U A25U U28G	0.23
C23A A24C G35U U38A	0.01
G22C C23A G35C	0.1
A24G G44U C46A	0.08
C23A A39U C45U	0.78
C23U G27A C42U C46G	0.09
C23A A25U U28C	0.47
A24G G36C G40U	0
C23G U32C U34G	0.04

Variant	self-cleavage
A24G G29C C31A G33A A39U	0.04
G22U C23G G35C C42G	0.02
A24G C37A U43C	0.07
A24U G29C A39C G40A	0.03
A24C G29C G44A C46A	0.04
C23G U43G G44U	1.42
A24U A25G G36A	0.12
G22C G27A C45A	1.22
A24G G33A U34A G40A C46G	0.16
G22U A26C A41U	0.47
G22U U28G G36A	0.03
G22U A25G A26G G30A	0.14
C23A G30C G33U C45U	0.09
G22C A24C G29C	0.08
C23G G29U A41U	0.69
A24G G29U G36A	0.81
G22C U32G G44U	0.1
C23U U28A A39G	0.03
G22U A24G A25U	0.72
A24G U34A C46U	0.04
G22C C37A U43A	0
G22U G29A G35A	0.36
A24G A25G G29U G30C U38G A39G C45G	0

From the RNAGym collection of RNA variant scans (doi:10.7554/elife.90254)
